Over roughly 81,000 sequences, “one-hybrid fitness for binding parS DNA” has its median near -0.17; the highest 2% begin near 0.51. This is one part of the list.
B1: Caulobacter ParB omega fusion; a variant is named by its letters at X, in order, B8GW30 (parent)
chain: MESVVVGEPGMSEGRRGLGRGLSALLGEVDAAPAQAPGEQLGGSREAPIEILQRNPDQPRRTFREEDLEDLSNSIREKGVLQPILVRPSPDTAGEYQIVAGERAWRAAQRAGLKTVPIMVRELDDLAVLEIGIIENVQRADLNVLEEALSYKVLMEKFERTQENIAQTIGKSXSHVANXMRLLXLPDEVQSYLVSGELTAXHARAIAAAADPVALAKQIIEGGLSVRETEALARKAPNLSAGKSKGGRPPRVKDTDTQALESDLSSVLGLDVSIDHRGSTGTLTITYATLEQLDDLCNRLTRGI

Variants of: B1
Test: one-hybrid fitness for binding parS DNA (scaled: cognate 1, non-cognate 0); higher = stronger binding
Details: with parS DNA site
Summary of the method: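 Bacterial one-hybrid selection in E. coli USO rpoZ- hisB- pyrF- with a HIS3 reporter carrying the site 19 bp from the promoter, screening Caulobacter ParB libraries with four specificity codons randomised (NNS). Cells grew 48 hours at 37°C on M9-minus-histidine plus 0.1 mM IPTG and 5 mM 3-AT. Plasmids before and after selection were Illumina-sequenced, three replicate libraries pooled, and variants under 10 reads dropped. Fitness is the log change in variant-to-wild-type read ratio, rescaled to cognate 1, non-cognate 0.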

Variant | one-hybrid fitness for binding parS DNA
RNET | 0.498
LRAT | ≤ 0.2
ATES | ≤ 0.2
RAND | 0.215
TYIV | ≤ 0.2
ADIF | ≤ 0.2
ESVL | ≤ 0.2
TPPW | ≤ 0.2
RWST | 0.665
MDDQ | ≤ 0.2
MRCT | ≤ 0.2
CRAS | ≤ 0.2
QTFN | ≤ 0.2
CAAN | ≤ 0.2
TCDD | ≤ 0.2
QYPA | ≤ 0.2
RKVE | ≤ 0.2
RGDR | ≤ 0.2
HYEM | ≤ 0.2
LTTI | ≤ 0.2
MIWC | ≤ 0.2
TTNF | ≤ 0.2
CRRT | ≤ 0.2
QNNS | ≤ 0.2
IGDG | ≤ 0.2

Variant | one-hybrid fitness for binding parS DNA
QKFV | ≤ 0.2
HCNW | ≤ 0.2
AVQY | ≤ 0.2
LMSA | ≤ 0.2
TAMS | ≤ 0.2
ATNP | ≤ 0.2
LLDM | ≤ 0.2
KWNY | ≤ 0.2
QRDY | ≤ 0.2
QMNW | ≤ 0.2
HRKH | ≤ 0.2
DETS | ≤ 0.2
QVLS | ≤ 0.2
MRMT | ≤ 0.2
AMKY | ≤ 0.2
VVFF | ≤ 0.2
LRPR | ≤ 0.2
MLEM | ≤ 0.2
SEPR | ≤ 0.2
DRWH | ≤ 0.2
EVPR | ≤ 0.2
WKGR | ≤ 0.2
RIRY | 0.617
QKME | ≤ 0.2
RIFV | ≤ 0.2

Variant | one-hybrid fitness for binding parS DNA
CYMV | ≤ 0.2
HIVT | ≤ 0.2
TCPC | ≤ 0.2
GGDG | ≤ 0.2
CPSF | ≤ 0.2
AFTK | ≤ 0.2
EGSR | ≤ 0.2
QCRG | ≤ 0.2
ILPM | ≤ 0.2
VPIC | ≤ 0.2
WKCC | ≤ 0.2
PTPS | ≤ 0.2
DENS | ≤ 0.2
IHNA | ≤ 0.2
NRPD | ≤ 0.2
LDAM | ≤ 0.2
SRIV | ≤ 0.2
DMHC | ≤ 0.2
TSWY | ≤ 0.2
KIMR | ≤ 0.2
QCAT | ≤ 0.2
NELG | ≤ 0.2
RNKC | 0.917
TIEG | ≤ 0.2
VWPR | ≤ 0.2

Variant | one-hybrid fitness for binding parS DNA
QLRM | ≤ 0.2
WAPT | ≤ 0.2
ANWM | ≤ 0.2
VMVD | ≤ 0.2
DLNT | ≤ 0.2
CFRK | ≤ 0.2
YMLW | ≤ 0.2
LTGL | ≤ 0.2
AGIS | ≤ 0.2
QAIQ | ≤ 0.2
HIET | ≤ 0.2
VVRH | ≤ 0.2
DMAD | ≤ 0.2
ARLF | ≤ 0.2
RADQ | ≤ 0.2
AHMT | ≤ 0.2
QNPR | ≤ 0.2
EAMC | ≤ 0.2
ALFT | ≤ 0.2
PQLG | ≤ 0.2
WDTV | ≤ 0.2
SAWY | ≤ 0.2
TSWV | ≤ 0.2
YTYV | ≤ 0.2
RQCI | ≤ 0.2

Variant | one-hybrid fitness for binding parS DNA
DNHT | ≤ 0.2
RDNS | ≤ 0.2
RTYF | 0.259
PGID | ≤ 0.2
GPPG | ≤ 0.2
TMSN | ≤ 0.2
TLGI | ≤ 0.2
HDPK | ≤ 0.2
QSNR | ≤ 0.2
SCNH | ≤ 0.2
SAEP | ≤ 0.2
IAVT | ≤ 0.2
MKPS | ≤ 0.2
TIWS | ≤ 0.2
QINK | ≤ 0.2
YYRC | ≤ 0.2
LYPC | ≤ 0.2
PYPT | ≤ 0.2
LNSI | ≤ 0.2
FLAD | ≤ 0.2
CLFK | ≤ 0.2
NWVW | ≤ 0.2
QELC | ≤ 0.2
SNTW | ≤ 0.2
DRIS | ≤ 0.2

Variant | one-hybrid fitness for binding parS DNA
PRRA | ≤ 0.2
RRSF | ≤ 0.2
GCLP | ≤ 0.2
HWNV | ≤ 0.2
QGDL | ≤ 0.2
TGVG | ≤ 0.2
AYWY | ≤ 0.2
DYKS | ≤ 0.2
QFHR | ≤ 0.2
VVFG | ≤ 0.2
GYMR | ≤ 0.2
CHQR | ≤ 0.2
YMFT | ≤ 0.2
LTMY | ≤ 0.2
IVRK | ≤ 0.2
EQTL | ≤ 0.2
FDSP | ≤ 0.2
CVYG | ≤ 0.2
IYVG | ≤ 0.2
DCRH | ≤ 0.2
HSIT | ≤ 0.2
EFMG | ≤ 0.2
SLRT | ≤ 0.2
LDNY | ≤ 0.2
DMER | ≤ 0.2

Variant | one-hybrid fitness for binding parS DNA
QGHT | ≤ 0.2
VHLD | ≤ 0.2
DRLA | ≤ 0.2
DNQL | ≤ 0.2
KVHV | ≤ 0.2
SLDY | ≤ 0.2
YMAN | ≤ 0.2
GSRG | ≤ 0.2
RLKD | ≤ 0.2
VLCI | ≤ 0.2
YSKW | ≤ 0.2
HTLL | ≤ 0.2
TIFE | ≤ 0.2
NPDV | ≤ 0.2
NNFT | ≤ 0.2
GHTK | ≤ 0.2
YTHY | ≤ 0.2
KRGG | ≤ 0.2
MPAP | ≤ 0.2
CDNI | ≤ 0.2
PQTD | ≤ 0.2
CNMT | ≤ 0.2
TGVY | ≤ 0.2
AKLG | ≤ 0.2
DKNF | ≤ 0.2

Variant | one-hybrid fitness for binding parS DNA
RTKR | ≤ 0.2
TANN | ≤ 0.2
KLFA | ≤ 0.2
TGGF | ≤ 0.2
IPCK | ≤ 0.2
SPYN | ≤ 0.2
LFTV | ≤ 0.2
GPDA | ≤ 0.2
TLKY | ≤ 0.2
RLSR | ≤ 0.2
CATR | ≤ 0.2
AWSR | ≤ 0.2
YQDC | ≤ 0.2
VVQL | ≤ 0.2
DCTY | ≤ 0.2
RQQI | ≤ 0.2
HPVC | ≤ 0.2
LGSN | ≤ 0.2
GLLC | ≤ 0.2
QSIS | ≤ 0.2

From a collection of fitness landscapes (doi:10.1016/j.celrep.2020.107928)
